The target in one assay is HA-RUNX2 (UniProt Q08775). The assay can be described thus: co-IP; HEK293T co-transfected with HA-RUNX2 and a Flag-TET construct; lysis after 48 h in EBC buffer (50 mM Tris pH 7.5, 120 mM NaCl, 0.5% NP-40); anti-Flag or anti-HA beads 3-4 h or overnight at 4 °C; five washes; immunoblot with HA and Flag antibodies. A general note: A western blot detects proteins with antibodies after separation by electrophoresis.

By UniProt entry, the sequences of proteins in these tests, tags left out. Where a name states a change or a piece, a line headed by the entry shows the natural chain unless it says otherwise.
UniProt Q08775: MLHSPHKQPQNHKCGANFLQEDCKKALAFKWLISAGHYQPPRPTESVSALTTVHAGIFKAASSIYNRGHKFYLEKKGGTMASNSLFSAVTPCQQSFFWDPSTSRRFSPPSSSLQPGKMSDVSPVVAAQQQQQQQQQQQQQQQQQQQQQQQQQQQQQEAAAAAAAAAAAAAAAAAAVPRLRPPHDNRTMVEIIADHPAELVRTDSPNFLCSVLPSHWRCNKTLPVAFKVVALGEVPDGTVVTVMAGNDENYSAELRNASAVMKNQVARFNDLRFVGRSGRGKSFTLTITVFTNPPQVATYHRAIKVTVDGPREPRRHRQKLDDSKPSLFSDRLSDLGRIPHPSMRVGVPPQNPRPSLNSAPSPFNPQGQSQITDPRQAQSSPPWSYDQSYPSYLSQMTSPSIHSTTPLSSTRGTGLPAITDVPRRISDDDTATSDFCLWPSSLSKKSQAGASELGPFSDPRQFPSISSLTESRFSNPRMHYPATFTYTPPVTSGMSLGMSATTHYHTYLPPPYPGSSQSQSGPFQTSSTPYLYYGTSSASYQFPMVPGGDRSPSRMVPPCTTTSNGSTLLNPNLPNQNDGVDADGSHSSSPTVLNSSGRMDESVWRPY
UniProt Q3URK3: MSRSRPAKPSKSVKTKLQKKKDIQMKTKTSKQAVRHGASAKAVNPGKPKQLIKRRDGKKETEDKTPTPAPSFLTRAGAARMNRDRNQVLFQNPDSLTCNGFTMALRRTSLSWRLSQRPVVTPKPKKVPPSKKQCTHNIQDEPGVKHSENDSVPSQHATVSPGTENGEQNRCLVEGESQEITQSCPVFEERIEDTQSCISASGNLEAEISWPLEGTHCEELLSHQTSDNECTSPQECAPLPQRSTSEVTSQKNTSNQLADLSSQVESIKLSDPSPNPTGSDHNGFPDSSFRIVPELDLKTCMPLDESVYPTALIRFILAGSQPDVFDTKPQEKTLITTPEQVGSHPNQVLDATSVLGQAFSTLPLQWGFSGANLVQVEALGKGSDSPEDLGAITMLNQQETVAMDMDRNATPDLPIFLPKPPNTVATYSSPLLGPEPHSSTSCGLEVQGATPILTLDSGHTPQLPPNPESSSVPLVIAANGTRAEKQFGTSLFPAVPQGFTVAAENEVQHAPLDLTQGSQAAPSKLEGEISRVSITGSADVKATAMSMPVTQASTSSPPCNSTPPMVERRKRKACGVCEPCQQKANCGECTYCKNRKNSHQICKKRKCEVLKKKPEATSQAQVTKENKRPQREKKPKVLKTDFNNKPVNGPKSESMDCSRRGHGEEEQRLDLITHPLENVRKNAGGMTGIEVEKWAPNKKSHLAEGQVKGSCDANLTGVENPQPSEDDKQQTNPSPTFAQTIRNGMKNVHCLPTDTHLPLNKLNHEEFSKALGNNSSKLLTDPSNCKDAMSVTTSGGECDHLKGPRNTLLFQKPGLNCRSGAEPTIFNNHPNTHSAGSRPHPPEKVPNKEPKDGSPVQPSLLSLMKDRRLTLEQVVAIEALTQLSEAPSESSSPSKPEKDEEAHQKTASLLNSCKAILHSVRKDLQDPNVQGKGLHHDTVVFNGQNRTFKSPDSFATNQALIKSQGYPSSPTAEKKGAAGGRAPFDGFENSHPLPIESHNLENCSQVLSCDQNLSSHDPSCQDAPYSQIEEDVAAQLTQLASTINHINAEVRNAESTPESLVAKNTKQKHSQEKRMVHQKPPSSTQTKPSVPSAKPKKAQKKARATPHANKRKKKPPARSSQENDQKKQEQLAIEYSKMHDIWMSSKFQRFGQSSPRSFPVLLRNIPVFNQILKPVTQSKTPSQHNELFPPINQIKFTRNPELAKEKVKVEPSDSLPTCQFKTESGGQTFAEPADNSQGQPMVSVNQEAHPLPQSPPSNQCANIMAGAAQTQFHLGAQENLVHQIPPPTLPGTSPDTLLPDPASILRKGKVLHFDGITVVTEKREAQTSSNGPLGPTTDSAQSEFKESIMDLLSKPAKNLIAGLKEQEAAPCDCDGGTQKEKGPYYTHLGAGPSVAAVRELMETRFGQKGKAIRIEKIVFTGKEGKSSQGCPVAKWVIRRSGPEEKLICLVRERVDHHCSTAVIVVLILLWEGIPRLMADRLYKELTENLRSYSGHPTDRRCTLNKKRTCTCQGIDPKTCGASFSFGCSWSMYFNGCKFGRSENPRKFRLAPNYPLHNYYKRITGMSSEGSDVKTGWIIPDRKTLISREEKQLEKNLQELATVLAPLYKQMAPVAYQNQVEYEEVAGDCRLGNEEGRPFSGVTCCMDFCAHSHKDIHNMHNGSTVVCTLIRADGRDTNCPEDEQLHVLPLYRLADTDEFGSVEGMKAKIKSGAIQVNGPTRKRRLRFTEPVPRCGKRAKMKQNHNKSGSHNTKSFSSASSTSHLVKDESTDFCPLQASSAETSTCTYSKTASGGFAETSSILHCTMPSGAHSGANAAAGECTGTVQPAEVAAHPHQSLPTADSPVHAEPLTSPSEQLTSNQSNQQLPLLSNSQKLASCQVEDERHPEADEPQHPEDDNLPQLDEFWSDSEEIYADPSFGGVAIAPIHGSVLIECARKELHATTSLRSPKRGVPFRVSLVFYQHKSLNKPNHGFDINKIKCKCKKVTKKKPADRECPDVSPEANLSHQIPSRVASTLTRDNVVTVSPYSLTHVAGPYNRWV

A further assay has as its target GST-RUNX2 (UniProt Q08775). Put plainly: pull-down; purified GST or GST-RUNX2 incubated with purified Flag-TET2-CD in EBC buffer for 3-4 h at 4 °C; three washes with EBC buffer; SDS-PAGE; both purified.

These are yes or no findings as the source states them, for the method shown. For some assays here: In cells and extracts the contact can be indirect. Some entries that bind do so weakly or less than the wild type. For some assays here: Tags and fused reporters may be left off the sequences shown.

As for “Flag-TET1 (from UniProt Q3URK3 1-2039) (enzyme)”, the binding entry with HA-RUNX2 is on record as “binds”.

With “Flag-TET1-Nterm (from UniProt Q3URK3 1-1366) (domain or fragment)”, the binding result with HA-RUNX2 is listed as “no binding”.

For “Flag-TET2-CD (from UniProt Q4JK59 1042-1912) (domain or fragment)”, the binding result with HA-RUNX2 and with GST-RUNX2 was “binds” each time.

B1: Flag-TET2-Nterm (domain or fragment, UniProt Q4JK59 1-1041)
chain: MEQDRTTHAEGTRLSPFLIAPPSPISHTEPLAVKLQNGSPLAERPHPEVNGDTKWQSSQSCYGISHMKGSQSSHESPHEDRGYSRCLQNGGIKRTVSEPSLSGLHPNKILKLDQKAKGESNIFEESQERNHGKSSRQPNVSGLSDNGEPVTSTTQESSGADAFPTRNYNGVEIQVLNEQEGEKGRSVTLLKNKIVLMPNGATVSAHSEENTRGELLEKTQCYPDCVSIAVQSTASHVNTPSSQAAIELSHEIPQPSLTSAQINFSQTSSLQLPPEPAAMVTKACDADNASKPAIVPGTCPFQKAEHQQKSALDIGPSRAENKTIQGSMELFAEEYYPSSDRNLQASHGSSEQYSKQKETNGAYFRQSSKFPKDSISPTTVTPPSQSLLAPRLVLQPPLEGKGALNDVALEEHHDYPNRSNRTLLREGKIDHQPKTSSSQSLNPSVHTPNPPLMLPEQHQNDCGSPSPEKSRKMSEYLMYYLPNHGHSGGLQEHSQYLMGHREQEIPKDANGKQTQGSVQAAPGWIELKAPNLHEALHQTKRKDISLHSVLHSQTGPVNQMSSKQSTGNVNMPGGFQRLPYLQKTAQPEQKAQMYQVQVNQGPSPGMGDQHLQFQKALYQECIPRTDPSSEAHPQAPSVPQYHFQQRVNPSSDKHLSQQATETQRLSGFLQHTPQTQASQTPASQNSNFPQICQQQQQQQLQRKNKEQMPQTFSHLQGSNDKQREGSCFGQIKVEESFCVGNQYSKSSNFQTHNNTQGGLEQVQNINKNFPYSKILTPNSSNLQILPSNDTHPACEREQALHPVGSKTSNLQNMQYFPNNVTPNQDVHRCFQEQAQKPQQASSLQGLKDRSQGESPAPPAEAAQQRYLVHNEAKALPVPEQGGSQTQTPPQKDTQKHAALRWLLLQKQEQQQTQQSQPGHNQMLRPIKTEPVSKPSSYRYPLSPPQENMSSRIKQEISSPSRDNGQPKSIIETMEQHLKQFQLKSLCDYKALTLKSQKHVKVPTDIQAAESENHARAAEPQATKSTDCSVLDDVSESDTPGE
In the case of B1, in the assay with HA-RUNX2, the binding entry was “no binding”.

The values above are taken from article PMC9372040.
